# The supplement of paper PMC4604168 (melanoma cell lines)
# Some of the results follow. Many values rest on one well or one pass, so single values are uncertain.
# Experiments:
# Assay in all cases: cell count relative to DMSO control; melanoma cells; higher = more viable cells
# Conditions in all cases: library dose: low library concentration; 72 h
# MZ2-MEL = system: MZ2-MEL
# MeWo = system: MeWo
# RPMI7951 = system: RPMI7951
# RVH-421 = system: RVH-421
# SkMel28 = system: SkMel28
# SkMel2 = system: SkMel2
# SkMel30 = system: SkMel30
# UACC62 = system: UACC62
# WM115 = system: WM115
# WM1716 = system: WM1716
# WM1745 = system: WM1745
# WM3526 = system: WM3526
# WM3619 = system: WM3619
# WM451Lu = system: WM451Lu
# 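Also: cell number obtained by counting DAPI-stained nuclei in high-throughput microscope images with image analysis software, screen run in 1,536-well plates.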
SMILES,cell count (MZ2-MEL) [%],cell count (MeWo) [%],cell count (RPMI7951) [%],cell count (RVH-421) [%],cell count (SkMel28) [%],cell count (SkMel2) [%],cell count (SkMel30) [%],cell count (UACC62) [%],cell count (WM115) [%],cell count (WM1716) [%],cell count (WM1745) [%],cell count (WM3526) [%],cell count (WM3619) [%],cell count (WM451Lu) [%]
"CCN(CC)CCNC(=O)c1c(C)[nH]c(/C=C2\C(=O)Nc3ccc(F)cc32)c1C [sunitinib] + C[C@]1(c2nc3c(C(N)=O)cccc3[nH]2)CCCN1 [Veliparib] (first compound 0.4 µM, partner dose 1.4 µM)",104,91,92.7,118,81.7,105,64.4,82.2,90.8,126,83.3,92.1,132,113
"C[C@]1(O)C[C@@H](c2nc(-c3ccc4ccc(-c5ccccc5)nc4c3)c3c(N)nccn32)C1 + Cc1nc(Nc2ncc(C(=O)Nc3c(C)cccc3Cl)s2)cc(N2CCN(CCO)CC2)n1 [dasatanib] (first compound 0.4 µM, partner dose 0.004 µM)",70.4,84.5,82.7,122,78.8,76.3,72.9,71,89.1,84,46.4,81.7,84.2,88.6
"CCN(CC)CCNC(=O)c1c(C)[nH]c(/C=C2\C(=O)Nc3ccc(F)cc32)c1C [sunitinib] + COc1ccc(Cl)c(Nc2nc3ccccc3nc2NS(=O)(=O)c2cccc(NC(=O)C(C)(C)N)c2)c1 [XL147] (first compound 0.4 µM, partner dose 0.8 µM)",101,89,100,127,91.6,127,77.9,85.7,115,123,74,82.3,102,95.9
"Cn1cnc2c(F)c(Nc3ccc(Br)cc3Cl)c(C(=O)NOCCO)cc21 [selumetinib] + Cn1sc(=O)n(Cc2ccccc2)c1=O [TDZD-8] (first compound 0.015 µM, partner dose 0.4 µM)",98.4,96.2,94.2,92.1,78.1,70.9,60.1,79.3,95.8,121,99.3,75,73.6,108
"COc1cc([C@@H]2c3cc4c(cc3[C@@H](O[C@@H]3O[C@@H]5CO[C@@H](C)O[C@H]5[C@H](O)[C@H]3O)[C@H]3COC(=O)[C@H]23)OCO4)cc(OC)c1O [etoposide] + OCc1c[nH]c2ccccc12 [Indole-3-carbinol] (first compound 0.02 µM, partner dose 0.8 µM)",90.9,102,108,97.2,111,97.1,109,68.8,87.3,88,94.1,104,89.6,96
"C[C@]1(O)C[C@@H](c2nc(-c3ccc4ccc(-c5ccccc5)nc4c3)c3c(N)nccn32)C1 + CS(=O)(=O)c1ccc(C(=O)Nc2ccc(Cl)c(-c3ccccn3)c2)c(Cl)c1 [vismodegib] (first compound 0.4 µM, partner dose 1 µM)",91.4,91.2,92.8,129,93.7,75.7,80.6,92.8,92.4,107,78.6,85.8,88.1,87.6
"CCN(CC)CCNC(=O)c1c(C)[nH]c(/C=C2\C(=O)Nc3ccc(F)cc32)c1C [sunitinib] + O=C(O)c1ccc2c(c1)nc(Nc1cccc(Cl)c1)c1ccncc12 [CX4945] (first compound 0.4 µM, partner dose 0.4 µM)",101,89.7,110,112,111,104,84.7,83.4,87.1,123,82.1,72,112,90.2
"COc1cc([C@@H]2c3cc4c(cc3[C@@H](O[C@@H]3O[C@@H]5CO[C@@H](C)O[C@H]5[C@H](O)[C@H]3O)[C@H]3COC(=O)[C@H]23)OCO4)cc(OC)c1O [etoposide] + C[C@]1(c2nc3c(C(N)=O)cccc3[nH]2)CCCN1 [Veliparib] (first compound 0.02 µM, partner dose 1.4 µM)",89.8,86.6,101,106,104,90.4,103,98.2,90.6,87.1,88.7,113,90.8,94
"COc1cc([C@@H]2c3cc4c(cc3[C@@H](O[C@@H]3O[C@@H]5CO[C@@H](C)O[C@H]5[C@H](O)[C@H]3O)[C@H]3COC(=O)[C@H]23)OCO4)cc(OC)c1O [etoposide] + CNC(=O)c1cc(Oc2ccc(NC(=O)Nc3ccc(Cl)c(C(F)(F)F)c3)cc2)ccn1 [sorafenib] (first compound 0.02 µM, partner dose 0.4 µM)",84.8,96.6,92.1,101,94.6,121,109,106,97.5,88.5,92.6,121,97.9,87
"CCN(CC)CCNC(=O)c1c(C)[nH]c(/C=C2\C(=O)Nc3ccc(F)cc32)c1C [sunitinib] + CCCS(=O)(=O)Nc1ccc(F)c(C(=O)c2c[nH]c3ncc(Cl)cc23)c1F [PLX4720] (first compound 0.4 µM, partner dose 0.08 µM)",88.2,83.6,98.6,82.5,83.8,112,92.5,53.5,97.8,114,81.5,64,78.9,95.4
"C[C@]1(O)C[C@@H](c2nc(-c3ccc4ccc(-c5ccccc5)nc4c3)c3c(N)nccn32)C1 + CC(=O)O[C@@]12CO[C@@H]1C[C@H](O)[C@@]1(C)C(=O)[C@H](O)C3=C(C)[C@@H](OC(=O)[C@H](O)[C@@H](NC(=O)OC(C)(C)C)c4ccccc4)C[C@@](O)([C@@H](OC(=O)c4ccccc4)[C@H]21)C3(C)C [Docetaxel] (first compound 0.4 µM, partner dose 0.0001 µM)",48.3,43.4,40.6,76.7,38.8,42,39.7,39.4,80.8,42.2,38.1,27.8,65.7,62.6
"CCN(CC)CCNC(=O)c1c(C)[nH]c(/C=C2\C(=O)Nc3ccc(F)cc32)c1C [sunitinib] + Nc1cccc2c1CN(C1CCC(=O)NC1=O)C2=O [lenalidomide] (first compound 0.4 µM, partner dose 1 µM)",104,78.9,98.1,104,95.7,113,84.7,90.6,108,115,75.9,92.7,111,105
"C[C@]1(O)C[C@@H](c2nc(-c3ccc4ccc(-c5ccccc5)nc4c3)c3c(N)nccn32)C1 + CCCS(=O)(=O)Nc1ccc(F)c(C(=O)c2c[nH]c3ncc(Cl)cc23)c1F [PLX4720] (first compound 0.4 µM, partner dose 0.08 µM)",85.1,104,93.8,79.5,86.5,85.7,79.7,63.6,104,117,69.5,84,76.3,122
"Cn1cnc2c(F)c(Nc3ccc(Br)cc3Cl)c(C(=O)NOCCO)cc21 [selumetinib] + CC(C)C[C@H](NC(=O)[C@H](Cc1ccccc1)NC(=O)c1cnccn1)B(O)O [Bortezomib] (first compound 0.015 µM, partner dose 0.001 µM)",89.6,82.1,105,68.5,81.8,80.2,62.5,58.6,82.2,83.5,84.7,74.2,33.5,86.7
"C[C@]1(O)C[C@@H](c2nc(-c3ccc4ccc(-c5ccccc5)nc4c3)c3c(N)nccn32)C1 + COc1ccc(Cl)c(Nc2nc3ccccc3nc2NS(=O)(=O)c2cccc(NC(=O)C(C)(C)N)c2)c1 [XL147] (first compound 0.4 µM, partner dose 0.8 µM)",92,94.7,107,99.9,95.7,96.8,74.9,101,100,112,79,77,90.8,112
"CCN(CC)CCNC(=O)c1c(C)[nH]c(/C=C2\C(=O)Nc3ccc(F)cc32)c1C [sunitinib] + Nc1nc(F)nc2c1ncn2[C@@H]1O[C@H](CO)[C@@H](O)[C@@H]1O [fludarabine] (first compound 0.4 µM, partner dose 0.2 µM)",108,36.2,107,136,76.9,17.3,22.2,94.4,101,140,91.9,30.7,99.7,49.2
"CCN(CC)CCNC(=O)c1c(C)[nH]c(/C=C2\C(=O)Nc3ccc(F)cc32)c1C [sunitinib] + C[C@@H](Oc1cc(-c2cnn(C3CCNCC3)c2)cnc1N)c1c(Cl)ccc(F)c1Cl [Crizotinib] (first compound 0.4 µM, partner dose 0.2 µM)",107,101,103,118,95.2,104,76.5,92.2,116,132,81.7,84.8,163,90.5
"COc1cc([C@@H]2c3cc4c(cc3[C@@H](O[C@@H]3O[C@@H]5CO[C@@H](C)O[C@H]5[C@H](O)[C@H]3O)[C@H]3COC(=O)[C@H]23)OCO4)cc(OC)c1O [etoposide] + O=c1[nH]nc(Sc2ncc([N+](=O)[O-])s2)n1-c1ccc2c(c1)OCCO2 [BI78D3] (first compound 0.02 µM, partner dose 0.2 µM)",91.1,86.3,86.8,108,77.5,90.3,101,85.1,77.9,92.9,85.4,90.6,84.9,104
